Here are results for two molecules from EP2886531B1, “Aspartic acid derivatives” (Merck Patent GmbH, priority 2013, dated 2015).

The procedure of this data set: The solid phase peptide synthesis is carried out following the Fmoc/tBu strategy (Atherton E., et.al., J.Chem. Soc., Chem. Comm., 539 (1978)). 0.44 g of Fmoc-Ile-Wang resin (0.54 mmol/g) are used in an ABI 431 for automated peptide synthesis employing HBTU/ ethyldiisopropylamine (3.6 eq./8.0 eq.) activation for amide bond formation and a solution of 20 % piperidine in dimethylformamide for Fmoc removal. The corresponding amino acids Fmoc-Val-OH, Fmoc-Lvs(Boc)-OH, Fmoc-Asp(OtBu/OMpe/ OEpe/OPhp)-OH, Fmoc-Gly-OH and Fmoc-Tyr(tBu)-OH are used in a four fold excess. […]
Further 50 mg peptide resin samples are treated with a solution of 20 % piperidine in dimethylformamide over 18 hours to simulate multiple Fmoc removals. Afterwards the peptide resin samples are exposed to 95% TFA in water for final cleavage in analogy to the above described protocol and all relevant impurities are identified by MS analysis (Xevo Waters Q-TOF-1, lock mass = 556.277 (leu-enkephaline)) and quantified by HPLC analysis (HPLC conditions: Halo Peptide 2,7 µm (150x4.6 mm) at 40 °C; water acetonitrile gradient of 5 % to 35 % B over 30 min where buffer A is 0.1% TFA and 2 % acetonitrile in water and buffer B is 0.1 % TFA in acetonitrile, flow 1 ml/min). […]

Structures are written as SMILES.

Regarding `CCCC(CCC)(CCC)OC(=O)C[C@H](NC(=O)OCC1c2ccccc2-c2ccccc21)C(=O)O` [Php, (2S)-N-((9H-fluoren-9-ylmethyloxy)carbonyl)aspartic acid-4-(4-(n-propyl)hept-4-yl) ester], the “Half-life in 10' cycles” value is 356 10' cycles.
On to `CCC(CC)(CC)OC(=O)C[C@H](NC(=O)OCC1c2ccccc2-c2ccccc21)C(=O)O` [Epe, (2S)-N-((9H-fluoren-9-ylmethyloxy)carbonyl)aspartic acid-4-((3-ethyl)pent-3-yl) ester], for which the “Half-life in 10' cycles” value is recorded as 175 10' cycles.
